The list shows a part of the results.
Assays:
HSkMC = human skeletal muscle cells; assay: cytotoxicity call (relative viability < 0.9); conditions: 10 µM
HepG2 = assay: cytotoxicity call (relative viability < 0.9); conditions: 10 µM
S. aureus RN4220 = assay: growth inhibition call (relative growth <= 0.2); conditions: 50 µM

C[C@H]1CCCCO[C@@H](CN(C)Cc2ccc(C(=O)O)cc2)[C@@H](C)CN([C@@H](C)CO)C(=O)c2cc(NC(=O)CCC(F)(F)F)ccc2O1
inactive: cytotoxicity call (HSkMC) | cytotoxicity call (HepG2) | growth inhibition call (S. aureus RN4220)

C[C@H](CO)N1C[C@H](C)[C@H](CN(C)Cc2ccc(C(=O)O)cc2)OCCCC[C@H](C)Oc2ccc(NC(=O)Nc3ccc4c(c3)OCO4)cc2C1=O
inactive: cytotoxicity call (HSkMC) | cytotoxicity call (HepG2) | growth inhibition call (S. aureus RN4220)

Nc1ccn([C@@H]2O[C@H](CO)[C@@H](O)[C@H]2O)c(=S)n1
inactive: cytotoxicity call (HSkMC) | cytotoxicity call (HepG2) | growth inhibition call (S. aureus RN4220)

CCNC(=O)N1CCC(N)CC1
inactive: cytotoxicity call (HSkMC) | cytotoxicity call (HepG2) | growth inhibition call (S. aureus RN4220)

CCCN(C)C[C@@H]1OCCCC[C@@H](C)Oc2ccc(NS(=O)(=O)c3cn(C)cn3)cc2C(=O)N([C@@H](C)CO)C[C@@H]1C
inactive: cytotoxicity call (HSkMC) | cytotoxicity call (HepG2) | growth inhibition call (S. aureus RN4220)

C[C@H](CO)N1C[C@H](C)[C@H](CN(C)Cc2ccc(Cl)c(Cl)c2)Oc2ccc(NS(=O)(=O)c3ccccc3)cc2C1=O
inactive: cytotoxicity call (HSkMC) | cytotoxicity call (HepG2) | growth inhibition call (S. aureus RN4220)

c1ccc(-n2cncn2)c(Cn2cnnc2)c1
inactive: cytotoxicity call (HSkMC) | cytotoxicity call (HepG2) | growth inhibition call (S. aureus RN4220)

C[C@H](CO)N1C[C@H](C)[C@@H](CN(C)S(C)(=O)=O)Oc2ccc(NC(=O)Cc3cn(C)c4ccccc34)cc2C1=O
inactive: cytotoxicity call (HSkMC) | cytotoxicity call (HepG2) | growth inhibition call (S. aureus RN4220)

C[C@@H]1CN([C@H](C)CO)C(=O)c2cccc(NS(C)(=O)=O)c2O[C@H]1CN(C)C(=O)Nc1ccc(C(F)(F)F)cc1
inactive: cytotoxicity call (HSkMC) | cytotoxicity call (HepG2) | growth inhibition call (S. aureus RN4220)

C[C@@H]1CCCCO[C@H](CN(C)Cc2ccc(C(=O)O)cc2)[C@@H](C)CN([C@@H](C)CO)C(=O)c2cc(NS(=O)(=O)c3cccs3)ccc2O1
inactive: cytotoxicity call (HSkMC) | cytotoxicity call (HepG2) | growth inhibition call (S. aureus RN4220)

Cc1nn(C)c(COc2ccc(N3CCN(S(=O)(=O)N(C)C)CC3)cc2)c1-c1cccc2c(CCCOc3cccc4ccccc34)c(C(=O)O)n(CCN3CCNCC3)c12
inactive: cytotoxicity call (HSkMC) | cytotoxicity call (HepG2) | growth inhibition call (S. aureus RN4220)

C[C@@H]1CCCCO[C@H](CN(C)CC2CCCCC2)[C@H](C)CN([C@H](C)CO)C(=O)c2cc(NS(=O)(=O)c3ccc(Cl)cc3)ccc2O1
inactive: cytotoxicity call (HSkMC) | cytotoxicity call (HepG2) | growth inhibition call (S. aureus RN4220)
